# Test results from PubChem BioAssay (NCATS).
# The list shows a part of the results. Shown are side measurements of this screen, not its main read-out; they come without a call. For some assays here: The list favours compounds with an active or inconclusive main result. The note in brackets gives the kind of curve behind each potency; many fits are weak.
# Assays:
# [1] = qHTS drug screen for cell cycle checkpoint inhibitors in PARPi-resistant BRCA-mutant ovarian cancer cell lines. (AID 1963452); settings: PEO1/OlaR viability, CellTiter-Glo luminescence, 96 h
# Method in brief: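 PEO1, PEO4 and PEO1/OlaR ovarian cancer cells, 600 per well, exposed 96 h at 37C to a dilution series. Viability read by CellTiter-Glo luminescence, normalized to DMSO and empty wells; activity summarized as Z-AUC.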
# [2] = qHTS for identification of novel therapeutic agents for treatment of microphthalmiaassociated transcription factor (MiT) renal cell carcinoma (RCC) (AID 1963991); settings: CellTiter-Glo, 48 h; for z-score: stronger effect = lower value
# Method in brief: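 Viability of three TFE3-fusion renal carcinoma lines measured by CellTiter-Glo after 48 h treatment with each of 1912 compounds at 11 concentrations. Responses scaled between DMSO (100%) and empty wells (0%) before curve fitting.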
# [3] = measured here: PEO1 parental viability
# [4] = TFE3-RCC UOK109 viability, measured here: UOK109 Z-AUC
# [5] = TFE3-RCC viability, measured here: UOK124 Z-AUC
# [6] = TFE3-RCC viability, measured here: UOK124 cell viability
# [7] = TFE3-RCC viability, measured here: UOK145 Z-AUC
# [8] = TFE3-RCC viability, measured here: UOK145 cell viability
# Tags tell the direction and shape of the fitted curve.
Compound,"AC50 [1, 3]",AC50 ([1]; measured here: PEO4 viability),"z-score [2, 4]","z-score [2, 5]","AC50 [2, 6]","z-score [2, 7]","AC50 [2, 8]"
CC(C)(C)c1cnc(CSc2cnc(NC(=O)C3CCNCC3)s2)o1,"0.174 µM [falling, full curve]","0.347 µM [falling, full curve]",-0.83,-0.448,"1.18 µM [falling, full curve]",-1.36,"0.662 µM [falling, full curve]"
Cc1ccc(C(=O)Nc2ccc(CN3CCN(C)CC3)c(C(F)(F)F)c2)cc1C#Cc1cnc2cccnn12,"1.1 µM [falling, partial curve]","3.09 µM [falling, full curve]",-0.611,-1.61,"3.32 µM [falling, full curve]",-0.955,"3.32 µM [falling, partial curve]"
CCC(C)SSc1ncc[nH]1 (configuration not stated),"24.5 µM [falling, single point]","21.9 µM [falling, single point]",0.457,0.151,"23.5 µM [falling, single point]",0.208,"37.2 µM [falling, single point]"
Cc1nc(N)ncc1-c1nc(N2CCOCC2)c2sc(C(C)(C)O)cc2n1,"2.45 µM [falling, partial curve]","11 µM [falling, partial curve]",-1.87,-0.671,"2.09 µM [falling, full curve]",-0.594,"2.35 µM [falling, full curve]"
COc1cc(C(=O)N2CCC(N3CCN(C)CC3)CC2)ccc1Nc1ncc2c(n1)N(C)c1ccccc1C(=O)N2C,"5.49 µM [falling, partial curve]","0.549 µM [falling, full curve, poor fit]",-0.461,-0.685,"7.43 µM [falling, partial curve]",-0.55,"16.6 µM [falling, partial curve]"
CCNc1cc(NC2CCC(O)CC2)nc(Nc2ccc3c(ccn3Cc3ccccc3)c2)n1 (configuration not stated),"12.3 µM [falling, partial curve]","24.5 µM [falling, partial curve, poor fit]",-0.0409,-0.168,"26.4 µM [falling, partial curve]",-0.542,"26.4 µM [falling, single point]"
COc1ccc(C2=N[C@H](c3ccc(Cl)cc3)[C@H](c3ccc(Cl)cc3)N2C(=O)N2CCNC(=O)C2)c(OC(C)C)c1,"13.8 µM [falling, single point]","13.8 µM [falling, single point]",-0.861,-0.142,"29.6 µM [falling, single point]",0.757,"20.9 µM [falling, partial curve]"
CC(C)Oc1cc(Nc2nc(N[C@@H](C)c3ccc(F)cn3)ncc2Cl)[nH]n1,"6.92 µM [falling, partial curve]","21.9 µM [falling, partial curve, poor fit]",-0.546,-1.05,"9.35 µM [falling, full curve]",-0.166,"18.7 µM [falling, partial curve]"
CN(C)c1ccccc1CN1CCCN(Cc2ccccc2N(C)C)C1c1ccncc1,"21.9 µM [falling, single point]","24.5 µM [falling, single point]",-0.672,-0.00922,"18.7 µM [falling, partial curve]",0.308,"26.4 µM [falling, single point]"
CO[C@@H]1C(N(C)C(=O)c2ccccc2)C[C@H]2O[C@]1(C)n1c3ccccc3c3c4c(c5c6ccccc6n2c5c31)C(=O)NC4=O (some centres not stated),"24.5 µM [falling, single point]","13.8 µM [falling, partial curve]",-0.426,-0.76,"3.32 µM [falling, full curve]",-0.433,"6.62 µM [falling, full curve]"
O=C(Nc1cn[nH]c1-c1nc2ccc(CN3CCOCC3)cc2[nH]1)NC1CC1,"3.09 µM [falling, full curve]","0.0977 µM [falling, full curve]",-1.93,-0.994,"1.66 µM [falling, partial curve]",-0.443,"8.33 µM [falling, partial curve]"
